Assay results published in paper PMC2265268.
These are yes or no findings as the source states them, for the method shown. Binding seen in cells or lysates may run through a third protein. Some entries that bind do so weakly or less than the wild type.

The chains behind the UniProt entries cited, without tags or fusion partners.
UniProt Q99LD4: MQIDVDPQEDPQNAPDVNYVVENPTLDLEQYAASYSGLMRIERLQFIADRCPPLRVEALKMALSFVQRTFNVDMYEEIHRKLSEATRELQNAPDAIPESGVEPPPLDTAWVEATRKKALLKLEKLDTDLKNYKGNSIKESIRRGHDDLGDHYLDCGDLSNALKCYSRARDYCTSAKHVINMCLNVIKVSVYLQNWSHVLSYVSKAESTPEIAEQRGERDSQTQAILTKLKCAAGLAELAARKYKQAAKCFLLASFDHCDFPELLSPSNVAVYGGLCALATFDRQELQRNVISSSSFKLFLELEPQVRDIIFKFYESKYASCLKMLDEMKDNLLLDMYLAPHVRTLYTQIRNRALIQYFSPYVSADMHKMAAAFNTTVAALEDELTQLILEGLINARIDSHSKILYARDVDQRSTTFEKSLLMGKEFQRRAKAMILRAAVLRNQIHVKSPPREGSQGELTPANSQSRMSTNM

Target: endogenous CSN1 (NIH3T3) (mouse (endogenous in NIH3T3)) (UniProt Q99LD4)
Assay: co-IP; CSN1 immunoprecipitated from DRB treated NIH3T3 nuclear extract, pre-immune serum as control; blot for endogenous SAP130

B1: SAP130/SF3b-3 (endogenous, NIH3T3) (protein, UniProt Q921M3 1-1217)
chain: MFLYNLTLQRATGISFAIHGNFSGTKQQEIVVSRGKILELLRPDPNTGKVHTLLTVEVFGVIRSLMAFRLTGGTKDYIVVGSDSGRIVILEYQPSKNMFEKIHQETFGKSGCRRIVPGQFLAVDPKGRAVMISAIEKQKLVYILNRDAAARLTISSPLEAHKANTLVYHVVGVDVGFENPMFACLEMDYEEADNDPTGEAAANTQQTLTFYELDLGLNHVVRKYSEPLEEHGNFLITVPGGSDGPSGVLICSENYITYKNFGDQPDIRCPIPRRRNDLDDPERGMIFVCSATHKTKSMFFFLAQTEQGDIFKITLETDEDMVTEIRLKYFDTVPVAAAMCVLKTGFLFVASEFGNHYLYQIAHLGDDDEEPEFSSAMPLEEGDTFFFQPRPLKNLVLVDELDSLSPILFCQIADLANEDTPQLYVACGRGPRSSLRVLRHGLEVSEMAVSELPGNPNAVWTVRRHIEDEFDAYIIVSFVNATLVLSIGETVEEVTDSGFLGTTPTLSCSLLGDDALVQVYPDGIRHIRADKRVNEWKTPGKKTIVKCAVNQRQVVIALTGGELVYFEMDPSGQLNEYTERKEMSADVVCMSLANVPPGEQRSRFLAVGLVDNTVRIISLDPSDCLQPLSMQALPAQPESLCIVEMGGTEKQDELGERGSIGFLYLNIGLQNGVLLRTVLDPVTGDLSDTRTRYLGSRPVKLFRVRMQGQEAVLAMSSRSWLSYSYQSRFHLTPLSYETLEFASGFASEQCPEGIVAISTNTLRILALEKLGAVFNQVAFPLQYTPRKFVIHPESNNLIIIETDHNAYTEATKAQRKQQMAEEMVEAAGEDERELAAEMAAAFLNENLPESIFGAPKAGNGQWASVIRVMNPIQGNTLDLVQLEQNEAAFSVAVCRFSNTGEDWYVLVGVAKDLILSPRSVAGGFVYTYKLVNNGEKLEFLHKTPVEEVPAAIAPFQGRVLIGVGKLLRVYDLGKKKLLRKCENKHIANYISGIQTIGHRVIVSDVQESFIWVRYKRNENQLIIFADDTYPRWVTTASLLDYDTVAGADKFGNICVVRLPPNTNDEVDEDPTGNKALWDRGLLNGASQKAEVIMNYHVGETVLSLQKTTLIPGGSESLVYTTLSGGIGILVPFTSHEDHDFFQHVEMHLRSEHPPLCGRDHLSFRSYYFPVKNVIDGDLCEQFNSMEPNKQKNVSEELDRTPPEVSKKLEDIRTRYAF
Q: How did the binding turn out when B1 was run?
A: The binding was “binds weakly”.
